In the supplement of paper PMC4967469:
Lines with a small IC50 respond at low doses; where the fit passes the top or lowest dose, that dose stands as a limit. AUC, from the same fit, is the share of area under the viability curve across the 256-fold dose range; it is 1 without any effect and falls as sensitivity rises. Where the top dose is marked as inferred, it was calculated from the reported fits.

Legend:
Experiment in all cases: Viability of human cancer cell lines after 72 h of drug (GDSC screen)
[1] = compound: CCN1CCN(Cc2ccc(NC(=O)c3ccc(C)c(Oc4ccnc5[nH]ccc45)c3)cc2C(F)(F)F)CC1 [NG-25]; conditions: top dose 10.24 µM; top dose inferred
Description: (§1)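 Human cancer cell lines in 384-well plates, medium with 10% serum, drug for 72 h over a 256-fold dose range (nine 2-fold or five 4-fold steps up to the top dose). Adherent lines were fixed and stained with the nucleic acid dye Syto60, suspension lines read with resazurin; signal relative to control wells, capped at 0 and 100%. One two-parameter sigmoid per drug and line, fitted in a mixed model over all curves with the slope shared within a line.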

[2] = compound: CCc1cc(Nc2nccc(-c3c(-c4ccc(OC)c(C(=O)Nc5c(F)cccc5F)c4)nc4ccccn34)n2)c(OC)cc1N1CCC(N2CCN(S(C)(=O)=O)CC2)CC1 [GSK-1904529A]; conditions: top dose 1.024 µM; top dose inferred
Description: as §1

[3] = compound: COc1ccccc1S(=O)(=O)Nc1ccc2c(c1)CN(C)C(=O)N2 [PFI-1]; conditions: top dose 10 µM; top dose inferred
Description: as §1

[4] = compound: Cn1cncc1[C@@](N)(c1ccc(Cl)cc1)c1ccc2c(c1)c(-c1cccc(Cl)c1)cc(=O)n2C [Tipifarnib]; conditions: top dose 16 µM; top dose inferred
Description: as §1

Cell Line: NCI-H1437 (lung adenocarcinoma, adherent)
- AUC [1]: 0.93
- IC50 [1]: > 10.2 µM
- AUC [2]: 0.943
- IC50 [2]: > 1.02 µM
- AUC [3]: 0.926
- IC50 [3]: > 10 µM
- AUC [4]: 0.727
- IC50 [4]: 4.57 µM

Cell Line: LOU-NH91 (lung squamous cell carcinoma, adherent)
- AUC [1]: 0.969
- IC50 [1]: > 10.2 µM
- AUC [2]: 0.984
- IC50 [2]: > 1.02 µM
- AUC [3]: 0.894
- IC50 [3]: > 10 µM
- AUC [4]: 0.771
- IC50 [4]: 6.68 µM

Cell Line: A431 (skin, adherent)
- AUC [1]: 0.862
- IC50 [1]: 8.15 µM
- AUC [2]: 0.987
- IC50 [2]: > 1.02 µM
- AUC [3]: 0.924
- IC50 [3]: > 10 µM
- AUC [4]: 0.416
- IC50 [4]: 0.593 µM

Cell Line: PE/CA-PJ15 (head and neck, adherent)
- AUC [1]: 0.954
- IC50 [1]: > 10.2 µM
- AUC [2]: 0.985
- IC50 [2]: > 1.02 µM
- AUC [3]: 0.859
- IC50 [3]: 9.38 µM
- AUC [4]: 0.965
- IC50 [4]: > 16 µM

Cell Line: NCI-H1651 (lung adenocarcinoma, adherent)
- AUC [1]: 0.987
- IC50 [1]: > 10.2 µM
- AUC [2]: 0.979
- IC50 [2]: > 1.02 µM
- AUC [3]: 0.964
- IC50 [3]: > 10 µM
- AUC [4]: 0.854
- IC50 [4]: 14.2 µM

Cell Line: FU-OV-1 (ovary, adherent)
- AUC [1]: 0.922
- IC50 [1]: > 10.2 µM
- AUC [2]: 0.962
- IC50 [2]: > 1.02 µM
- AUC [3]: 0.792
- IC50 [3]: 6.19 µM
- AUC [4]: 0.737
- IC50 [4]: 5.99 µM

Cell Line: COLO-792 (melanoma, adherent)
- AUC [1]: 0.988
- IC50 [1]: > 10.2 µM
- AUC [2]: 0.921
- IC50 [2]: > 1.02 µM
- AUC [3]: 0.775
- IC50 [3]: 3.89 µM
- AUC [4]: 0.773
- IC50 [4]: 6.15 µM

Cell Line: HCT-116 (large intestine, adherent)
- AUC [1]: 0.814
- IC50 [1]: 5.21 µM
- AUC [2]: 0.986
- IC50 [2]: > 1.02 µM
- AUC [3]: 0.869
- IC50 [3]: 8.42 µM
- AUC [4]: 0.744
- IC50 [4]: 4.79 µM

Cell Line: HuP-T3 (pancreas, adherent)
- AUC [1]: 0.959
- IC50 [1]: > 10.2 µM
- AUC [2]: 0.973
- IC50 [2]: > 1.02 µM
- AUC [3]: 0.799
- IC50 [3]: 6.07 µM
- AUC [4]: 0.756
- IC50 [4]: 6.58 µM

Cell Line: SW1990 (pancreas, adherent)
- AUC [1]: 0.976
- IC50 [1]: > 10.2 µM
- AUC [2]: 0.983
- IC50 [2]: > 1.02 µM
- AUC [3]: 0.957
- IC50 [3]: > 10 µM
- AUC [4]: 0.76
- IC50 [4]: 6.56 µM

Cell Line: H2595 (mesothelioma, adherent)
- AUC [1]: 0.972
- IC50 [1]: > 10.2 µM
- AUC [2]: 0.978
- IC50 [2]: > 1.02 µM
- AUC [3]: 0.823
- IC50 [3]: 9.26 µM
- AUC [4]: 0.764
- IC50 [4]: 8.12 µM

Cell Line: MDA-MB-175-VII (breast, adherent)
- AUC [1]: 0.986
- IC50 [1]: > 10.2 µM
- AUC [2]: 0.985
- IC50 [2]: > 1.02 µM
- AUC [3]: 0.986
- IC50 [3]: > 10 µM
- AUC [4]: 0.919
- IC50 [4]: > 16 µM

Cell Line: 451Lu (melanoma, adherent)
- AUC [1]: 0.986
- IC50 [1]: > 10.2 µM
- AUC [2]: 0.981
- IC50 [2]: > 1.02 µM
- AUC [3]: 0.836
- IC50 [3]: 6.25 µM
- AUC [4]: 0.576
- IC50 [4]: 1.6 µM

Cell Line: SW48 (large intestine, adherent)
- AUC [1]: 0.866
- IC50 [1]: 9.11 µM
- AUC [2]: 0.985
- IC50 [2]: > 1.02 µM
- AUC [3]: 0.817
- IC50 [3]: 5.55 µM
- AUC [4]: 0.766
- IC50 [4]: 5.88 µM

Cell Line: NCI-H838 (lung adenocarcinoma, adherent)
- AUC [1]: 0.856
- IC50 [1]: 8.81 µM
- AUC [2]: 0.971
- IC50 [2]: > 1.02 µM
- AUC [3]: 0.874
- IC50 [3]: > 10 µM
- AUC [4]: 0.855
- IC50 [4]: 13.6 µM

Cell Line: HCC202 (breast, adherent)
- AUC [1]: 0.802
- IC50 [1]: 7.63 µM
- AUC [2]: 0.952
- IC50 [2]: > 1.02 µM
- AUC [3]: 0.957
- IC50 [3]: > 10 µM
- AUC [4]: 0.607
- IC50 [4]: 2.21 µM

Cell Line: ECC10 (stomach, suspension)
- AUC [1]: 0.853
- IC50 [1]: 8.54 µM
- AUC [2]: 0.952
- IC50 [2]: > 1.02 µM
- AUC [3]: 0.793
- IC50 [3]: 4.81 µM
- AUC [4]: 0.629
- IC50 [4]: 2.31 µM

Cell Line: H2818 (mesothelioma, adherent)
- AUC [1]: 0.985
- IC50 [1]: > 10.2 µM
- AUC [2]: 0.988
- IC50 [2]: > 1.02 µM
- AUC [3]: 0.947
- IC50 [3]: > 10 µM
- AUC [4]: 0.9
- IC50 [4]: > 16 µM

Cell Line: NCI-H650 (lung adenocarcinoma, adherent)
- AUC [1]: 0.918
- IC50 [1]: > 10.2 µM
- AUC [2]: 0.986
- IC50 [2]: > 1.02 µM
- AUC [3]: 0.857
- IC50 [3]: 9.47 µM
- AUC [4]: 0.873
- IC50 [4]: > 16 µM

Cell Line: SU-DHL-5 (B-cell lymphoma, suspension)
- AUC [1]: 0.502
- IC50 [1]: 0.648 µM
- AUC [2]: 0.994
- IC50 [2]: > 1.02 µM
- AUC [3]: 0.785
- IC50 [3]: 3.2 µM
- AUC [4]: 0.452
- IC50 [4]: 0.762 µM

Cell Line: TYK-nu (ovary, adherent)
- AUC [1]: 0.968
- IC50 [1]: > 10.2 µM
- AUC [2]: 0.944
- IC50 [2]: > 1.02 µM
- AUC [3]: 0.866
- IC50 [3]: > 10 µM
- AUC [4]: 0.845
- IC50 [4]: 12.8 µM

Cell Line: BT-483 (breast, adherent)
- AUC [1]: 0.961
- IC50 [1]: > 10.2 µM
- AUC [2]: 0.976
- IC50 [2]: > 1.02 µM
- AUC [3]: 0.908
- IC50 [3]: > 10 µM
- AUC [4]: 0.969
- IC50 [4]: > 16 µM

Cell Line: BCPAP (thyroid, adherent)
- AUC [1]: 0.789
- IC50 [1]: 4.07 µM
- AUC [2]: 0.985
- IC50 [2]: > 1.02 µM
- AUC [3]: 0.889
- IC50 [3]: 9.54 µM
- AUC [4]: 0.541
- IC50 [4]: 1.28 µM

Cell Line: PCI-15A (head and neck, adherent)
- AUC [1]: 0.983
- IC50 [1]: > 10.2 µM
- AUC [2]: 0.986
- IC50 [2]: > 1.02 µM
- AUC [3]: 0.94
- IC50 [3]: > 10 µM
- AUC [4]: 0.818
- IC50 [4]: 9.11 µM

Cell Line: SKG-IIIa (cervix, adherent)
- AUC [1]: 0.983
- IC50 [1]: > 10.2 µM
- AUC [2]: 0.976
- IC50 [2]: > 1.02 µM
- AUC [3]: 0.908
- IC50 [3]: > 10 µM
- AUC [4]: 0.936
- IC50 [4]: > 16 µM

Cell Line: FADU (head and neck, adherent)
- AUC [1]: 0.981
- IC50 [1]: > 10.2 µM
- AUC [2]: 0.987
- IC50 [2]: > 1.02 µM
- AUC [3]: 0.843
- IC50 [3]: 6.73 µM
- AUC [4]: 0.731
- IC50 [4]: 4.41 µM

Cell Line: NCI-H1693 (lung adenocarcinoma, adherent)
- AUC [1]: 0.916
- IC50 [1]: > 10.2 µM
- AUC [2]: 0.972
- IC50 [2]: > 1.02 µM
- AUC [3]: 0.874
- IC50 [3]: > 10 µM
- AUC [4]: 0.875
- IC50 [4]: > 16 µM

Cell Line: A172 (glioma, adherent)
- AUC [1]: 0.911
- IC50 [1]: > 10.2 µM
- AUC [2]: 0.984
- IC50 [2]: > 1.02 µM
- AUC [3]: 0.925
- IC50 [3]: > 10 µM
- AUC [4]: 0.676
- IC50 [4]: 3.04 µM

Cell Line: Ca9-22 (head and neck, adherent)
- AUC [1]: 0.904
- IC50 [1]: > 10.2 µM
- AUC [2]: 0.979
- IC50 [2]: > 1.02 µM
- AUC [3]: 0.736
- IC50 [3]: 2.77 µM
- AUC [4]: 0.667
- IC50 [4]: 2.8 µM

Cell Line: Daoy (medulloblastoma, adherent)
- AUC [1]: 0.897
- IC50 [1]: > 10.2 µM
- AUC [2]: 0.94
- IC50 [2]: > 1.02 µM
- AUC [3]: 0.858
- IC50 [3]: 7 µM
- AUC [4]: 0.132
- IC50 [4]: 0.0813 µM
